Assay results from PubChem BioAssay AID485344 (National Center for Advancing Translational Sciences (NCATS), 2010).
Out of some 340,000 compounds screened, about 6,900 (2%) were called active. Rule as the data show it: active = inhibition above about 30%; inactive = below that, where a call was filed. The entries are a selection whose mix differs from that of the whole data set. Entries without a call were filed so in the source.

Each compound was assayed against D(2) dopamine receptor (Homo sapiens) (UniProt P14416) (assay: HTS Assay for Allosteric Antagonists of the Human D2 Dopamine Receptor: Primary Screen for Antagonists). Details: HEK293 TREx D2 cells, calcium flux, dopamine EC80; at 10 µM; stronger effect = higher value.
Method in brief: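 Read-out: kinetic calcium fluorescence (1 cycle/s) in inducible HEK293 T-REx D2 cells after an EC80 dopamine addition that followed 180 s compound preincubation. Loss of the dopamine response indicates antagonism.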
Also: 0% is about no effect.

UniProt P14416, sequence (P14416 whole entry, looked up): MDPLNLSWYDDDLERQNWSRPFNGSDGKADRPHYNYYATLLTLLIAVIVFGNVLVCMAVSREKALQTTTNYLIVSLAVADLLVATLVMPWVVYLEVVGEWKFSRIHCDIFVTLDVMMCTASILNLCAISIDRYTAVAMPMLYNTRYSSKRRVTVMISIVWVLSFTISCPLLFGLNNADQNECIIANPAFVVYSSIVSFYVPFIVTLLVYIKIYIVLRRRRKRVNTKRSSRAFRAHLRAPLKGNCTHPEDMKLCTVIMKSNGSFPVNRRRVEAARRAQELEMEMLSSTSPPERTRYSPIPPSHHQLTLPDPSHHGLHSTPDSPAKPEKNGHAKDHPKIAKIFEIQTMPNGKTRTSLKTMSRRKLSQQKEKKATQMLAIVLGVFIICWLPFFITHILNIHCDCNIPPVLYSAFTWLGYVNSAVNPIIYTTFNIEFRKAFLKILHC

Compound | inhibition
O=C(Cn1nnc2sc3c(c2c1=O)CCCC3)Nc1ccc(F)c(Cl)c1 | -1.2%
COc1cccc(NC(CNS(=O)(=O)c2ccc(C)cc2)c2ccccc2)c1 (stereo unspecified) | 9.03%
CCN1C(=O)c2ccccc2Sc2ccc(NC(=O)c3ccc(C)c(F)c3)cc21 | -18.1%
Cc1nc2cc(-c3cccc(F)c3)nn2c(C)c1CCC(=O)N1CCN(c2ccc(F)cc2)CC1 | 2.96%
O=C(Nc1cccc(Cl)c1)c1cc(S(=O)(=O)N2CCOCC2)cs1 | active: 34.8%
CCOC(=O)c1cccc(NC(=O)CC(c2ccc(F)cc2)N2Cc3ccccc3C2=O)c1 (stereo unspecified) | 17.5%
CCOc1cc(C#N)c(NC(=O)c2ccc(OC)c(S(=O)(=O)N3CCCC3)c2)cc1OCC | 1.97%
O=S(=O)(c1ccccc1)c1nc(-c2ccc(F)cc2)oc1N1CCOCC1 | 4.33%
O=C(c1nc(-c2ccc(Cl)cc2)n2c1CCCCC2)N1CCN(c2ccc(F)cc2)CC1 | 5.34%
CCCOc1ccc(OC(=O)c2sc3ncn(Cc4cccc(F)c4)c(=O)c3c2C)cc1 | -11.3%
CS(=O)(=O)N(Cc1ccccc1)c1ccc(C(=O)NCC2CCCO2)cc1 (stereo unspecified) | active: 32.8%
COc1ccccc1NC(=O)N(Cc1ccco1)C1CCN(C(C)=O)CC1 | 4.63%
CCCCCn1c(=O)[nH]c2cc(C(=O)NCc3ccc(C)cc3)ccc2c1=O | 3.94%
CCN1CCN(C(=O)Nc2ccc(OC)cc2OC)CC1 | active: 48.8%
NC(=O)CC(NC(=O)c1cccc(Br)c1)c1ccc(NCC2CC2)c([N+](=O)[O-])c1 (stereo unspecified) | active: 37.7%
CCOc1ccc(CCNC(=O)C2=C(C)C(=O)OC23CCC(C)CC3)cc1OCC (stereo unspecified) | 7.28%
COc1cccc(NC(=O)CSc2nc(-c3ccccc3)nc3c2Cc2cc(Cl)ccc2O3)c1 | 0.134%
Cc1ccc(C(=O)c2oc3ccccc3c2NC(=O)c2nc(S(C)(=O)=O)ncc2Cl)cc1F | 7.57%
Cc1ccc(NC(=O)c2ccc3nc(Cc4ccccc4)oc3c2)cc1F | -11.6%
CCCCN(C)CCNC(=O)Cn1ncc2c3ccccc3n(CCC)c2c1=O | -19.1%
COc1ccc(C)cc1N(C)C(=O)c1sc2nc3n(c(=O)c2c1C)CCCCC3 | 5.17%
Cc1cccc(-c2noc(CN(C(=O)c3ccc(C)c(C)c3)C(C)C)n2)c1 | 2.57%
Cc1ccc(NC(=O)c2ncn(-c3ccccc3)n2)c(Cl)c1 | 2.67%
Cc1csc2nc(-c3cccc(NC(=O)c4cccc(F)c4)c3)cn12 | -19%

Compound | inhibition
CC1CCCCN1C(=O)CSc1nnc(-c2cccc(Cl)c2)o1 (stereo unspecified) | 11.7%
Cc1ccc(Cl)cc1NC(=O)/C(C#N)=C/c1c(C)n(Cc2ccccc2)c2ccccc12 | -2.26%
Fc1ccc(-c2csc(-c3nc(-c4ccc(Br)s4)cs3)n2)cc1 | -6.08%
C1CNCCNCCCNCCNC1 | active: 46.3%
CCOc1ccc(NC(=O)CCCN2C(=O)C(c3ccccc3)Oc3cccnc32)cc1 (stereo unspecified) | 4.66%
Cc1ccc(-n2ncc(C(=O)NCc3cccs3)c2C2CCN(C(=O)OC(C)(C)C)CC2)cc1C | 7.9%
Cc1cccc(C2N3CC4(C(C)C)CN2CC(C(C)C)(C3)C4=O)c1 (stereo unspecified) | 12.8%
CCOc1ccc(-c2cc3c(=O)n(CC(=O)Nc4c(C)cccc4C)ccn3n2)cc1 | 8.83%
Cc1ccc2[nH]c(CSc3nnc(NC(=O)COc4ccccc4F)s3)cc(=O)c2c1 | 1.24%
Cc1cccc(Cn2c(CNS(=O)(=O)c3ccc(Cl)s3)nc3cccnc32)c1 | 9.74%
Cn1c(=O)oc2cc(S(=O)(=O)NCCC(=O)Nc3ccc(F)c(Cl)c3)ccc21 | -16%
CC(C)CN(CCNC(=O)c1cc(=O)[nH]c2ccc(S(=O)(=O)N3CCCCCC3)cc12)CC(C)C | 4.74%
CCc1ccc(CN(Cc2ccco2)C(=O)c2cc(-c3ccc(Cl)cc3)on2)cc1 | -7.54%
O=C(COC(=O)c1c(F)cccc1F)Nc1ccc2[nH]c(=O)[nH]c2c1 | active: 64.7%
COc1ccc2c(Sc3ccccc3)c(C(=O)NCCN(C)C)[nH]c2c1 | -17.8%
CCOc1ccc(-c2nonc2NC(=O)c2ccccc2C)cc1 | -7.54%
Cc1cc2c(cc1S(=O)(=O)Nc1cccc(C(F)(F)F)c1)OCCN2C | 4.45%
Cc1ccc(Cl)cc1NC(=O)NC1COc2ccccc2C1 (stereo unspecified) | -28%
CC(C)Oc1ccc(CNC(=O)Cc2ccc(NC(=O)N3CCSc4ncccc43)cc2)cc1 | 6.95%
Cc1ccc2c(c1)c(=O)c(S(=O)(=O)c1ccc(F)cc1)cn2CC(=O)Nc1ccc2c(c1)OCO2 | 1.92%
Fc1ccccc1N1CCN(CC2CC3C=CC2C3)CC1 (stereo unspecified) | active: 73.9%
O=C(Cc1ccc(Cl)cc1)Nc1ccc2oc(-c3ccccc3)nc2c1 | -5.76%
CC(C)(C)C1CCc2c(sc(NC(=O)c3ccccc3F)c2C(=O)N2CCCCC2)C1 (stereo unspecified) | 27.3%
CCOC(=O)N1CCC(Nc2c(Nc3ccc(C)c(C)c3)c(=O)c2=O)CC1 | active: 57%

Compound | inhibition
CS(=O)(=O)c1ncc(N(Cc2ccccc2)Cc2ccco2)c(C(=O)Nc2cccc(C(F)(F)F)c2)n1 | 1.26%
CC(C)Cn1c(=O)c2sccc2n2c(CCCC(=O)Nc3ccc(Cl)cc3)nnc12 | 5.59%
CCOC(=O)c1c(NC(=O)c2cc(-c3ccccc3)on2)sc2c1CCCC2 | -4.34%
O=C(NCCc1ccc(Cl)cc1)c1ccc2nc(Cc3ccccc3)oc2c1 | 10.1%
O=C(CC1SC(N2CCCC2)=NC1=O)Nc1ccc(C(=O)NCCOc2ccccc2F)cc1 (stereo unspecified) | active: 52.1%
Cc1cc(C)c(NC(=O)CSc2nc(=O)n(Cc3ccco3)c3c2CCC3)c(C)c1 | 15.6%
COc1cccc(-c2nc(SCc3cc(=O)c4cc(Cl)ccc4[nH]3)n[nH]2)c1 | 9.66%
NC1=NC2(CCN(Cc3ccccc3)CC2)n2c(nc3ccccc32)N1 | active: 43.2%
Cc1cccc(N(CC(=O)NC(C)c2ccccc2)S(=O)(=O)c2ccccc2)c1C (stereo unspecified) | -9.28%
Cc1ccc(-c2nn3c(C)nnc3c3ccccc23)cc1S(=O)(=O)NCCO | 8.1%
CC(C)Cn1c(=O)c2ccccc2n2c(-c3ccc(Br)cc3)nnc12 | -12.5%
CCCCN(c1ccccc1)c1ncnc2c1cnn2-c1ccc(Cl)cc1 | 21.6%
COc1ccc(OC)c(CCNC(=O)CCn2c(=O)c3cccn3c3cccnc32)c1 | -7.98%
Cc1ccc(CN(Cc2ccco2)c2cnc(S(C)(=O)=O)nc2C(=O)Nc2ccc(Br)cc2)o1 | -5.95%
Cc1cc(C)cc(C(=O)Nc2cc(C(F)(F)F)ccc2N2CCN(c3ccccc3)CC2)c1 | -2.62%
CCN1C(=S)SC(=O)C1=C1C=C(C)OC(C)=C1 | active: 57.2%
Cc1ccccc1NC(=O)Cn1c(=O)n(Cc2ccc3c(c2)OCO3)c(=O)c2oc3ccccc3c21 | 17.5%
Cc1ccc(-c2cn3cccc(C)c3n2)cc1NS(=O)(=O)c1ccccc1 | 8.98%
CCN(Cc1ccc(OC)cc1)c1ccc(-c2nc(-c3ccncc3)no2)cc1[N+](=O)[O-] | 15.9%
CCC(=O)N1CCc2cc(S(=O)(=O)CCC(=O)N3CCN(c4cccc(C)c4)C(C)C3)ccc21 (stereo unspecified) | 10.5%
Cc1cc(C)c(Cn2c3ccccc3c3cnn(CC(=O)NCCCc4ccccc4)c(=O)c32)c(C)c1 | 4.92%
O=C(NCc1cccc(Cl)c1)c1cccn1-c1nnc(N2CCCC2)s1 | 0.804%
O=C(NCCc1ccccc1)c1ccc(Cn2c(SCc3ccc(F)cc3)nc3cccnc32)cc1 | -1.83%
COc1ccc(OC)c(S(=O)(=O)N2Cc3ccccc3CC2C(=O)Nc2ccc(C(C)=O)cc2)c1 (stereo unspecified) | -16.5%

Compound | inhibition
CCn1c(=O)c(C(C)=O)nc2ccccc21 | active: 32.8%
CCc1ccc(-n2nc3ccc(NC(=O)c4cc5ccccc5o4)cc3n2)cc1 | 19%
Cc1ccc(CNC(=O)c2cn(C)c3ccc(S(=O)(=O)N(C)C4CCCCC4)cc3c2=O)cc1 | 4.55%
Cc1ccc(CNC(=O)c2nc(SCc3cccc(C)c3)ncc2Cl)cc1 | -0.966%
Cc1ccc(CN2CCN(CCC(C)C)C(CCO)C2)s1 (stereo unspecified) | active: 56.8%
CCOc1ccc(-c2cc3c(=O)n(Cc4nc(-c5cccc(OC)c5OC)oc4C)ccn3n2)cc1Cl | 9.7%
CCOc1ccc(CC(=O)NCCc2csc3nc(-c4ccccc4F)nn23)cc1 | 9.51%
Cc1noc(/C=C/N(C)C)c1S(=O)(=O)N1CCCC(C(=O)Nc2cccc(F)c2)C1 (stereo unspecified) | -4.6%
COc1ccccc1N1CCN(Cc2ccc(OC)c(OC)c2OC)CC1 | active: 80.8%
COc1ccc(CNC(=O)C(=O)NCC(c2ccc3c(c2)OCO3)N2CCOCC2)cc1 (stereo unspecified) | -11.7%
O=C1CC(c2ccccc2)Cc2[nH]c(=O)c(-c3nc(-c4cccc(Cl)c4)cs3)cc21 (stereo unspecified) | 3.45%
COc1ccc(-c2cc(C(=O)N3CCN(c4ccccc4OC)CC3)c3cc(C(C)C)ccc3n2)cc1 | 11.7%
Cc1ccc(Cl)cc1N1CCN(C(c2ccc(F)cc2)c2nnc(-c3ccccc3)o2)CC1 (stereo unspecified) | -5.71%
CCOC(=O)COn1c(-n2nc(C)cc2C)nc2ccccc2c1=O | active: 32.8%
O=C(CSc1n[nH]c(-c2ccccc2)n1)N1CCCCC1 | -12%
COC(=O)c1sccc1S(=O)(=O)N1CCN(c2cccc(C)c2C)CC1 | -14.7%
CCn1c(C)nc2c1C(=O)c1ccccc1C2=O | active: 34.8%
O=C(C[n+]1ccc2ccccc2c1)Nc1cc(C(F)(F)F)ccc1Cl | active: 53.7%
CCOc1ccc(CCNC(=O)CSc2cc(=O)n(C)c3ccccc23)cc1OCC | -13.9%
COc1ccc(Cc2nnc(SCC(=O)N(C)c3ccccc3)o2)cc1 | active: 66%
COc1ccc2nc(NS(=O)(=O)c3ccc(C)cc3)c(Nc3cc(Cl)ccc3OC)nc2c1 | -10.1%
Fc1ccc(-c2cc(-c3nc(-c4cccc(Cl)c4)no3)[nH]n2)cc1 | 3.6%
COc1cc(OC)c(OC)cc1CN1CCc2nc(N3CCN(c4ncccn4)CC3)ncc2C1 | -10%
COc1cc(OC)c2ccc(=O)oc2c1C(CCN1CCCC(C)C1)c1ccc2c(c1)OCO2 (stereo unspecified) | active: 83.5%
